# From the supplement of paper PMC8728848
# The other results are listed elsewhere or left out.
# Experiments:
# Experiment in all cases: glycan array binding signal (z-score within array); higher = stronger binding
# Details in all cases: glycan notation: IUPAC condensed, linker removed
# [1] = biological target: Neu5Ac(a2-6)Gal(b1-3)GlcNAc(b1-3)[Gal(b1-4)GlcNAc(b1-6)]Gal(b1-4)Glc
# How it was run: (§1)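 Glycan array data were curated from 3228 arrays in the Consortium for Functional Glycomics database and kept only where the protein sequence was available. Glycan names were converted to IUPAC-condensed notation, and columns mapping to the same glycan were averaged. The binding signal is a within-array Z-score, averaged across arrays of the same protein sequence at different concentrations or buffers and across linkers. Negative Z-scores can be read as non-binding.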
# Neu5Ac(a2-6)Gal(b1-4)Glc = biological target: Neu5Ac(a2-6)Gal(b1-4)Glc
# How it was run: as §1
# [2] = biological target: Neu5Ac(a2-6)Gal(b1-4)GlcNAc
# How it was run: as §1
# [3] = biological target: Neu5Ac(a2-6)Gal(b1-4)GlcNAc(b1-2)Man
# How it was run: as §1
# [4] = biological target: Neu5Ac(a2-6)Gal(b1-4)GlcNAc(b1-2)Man(a1-3)Man(b1-4)GlcNAc(b1-4)GlcNAc
# How it was run: as §1
# [5] = biological target: Neu5Ac(a2-6)Gal(b1-4)GlcNAc(b1-2)Man(a1-3)[Gal(b1-4)GlcNAc(b1-2)Man(a1-6)]Man(b1-4)GlcNAc(b1-4)GlcNAc
# How it was run: as §1
# [6] = biological target: Neu5Ac(a2-6)Gal(b1-4)GlcNAc(b1-2)Man(a1-3)[GlcNAc(b1-4)][Neu5Ac(a2-6)Gal(b1-4)GlcNAc(b1-2)Man(a1-6)]Man(b1-4)GlcNAc(b1-4)GlcNAc
# How it was run: as §1
# [7] = biological target: Neu5Ac(a2-6)Gal(b1-4)GlcNAc(b1-2)Man(a1-3)[Man(a1-6)]Man(b1-4)GlcNAc(b1-4)GlcNAc
# How it was run: as §1
# [8] = biological target: Neu5Ac(a2-6)Gal(b1-4)GlcNAc(b1-2)Man(a1-3)[Neu5Ac(a2-3)Gal(b1-4)GlcNAc(b1-2)Man(a1-6)]Man(b1-4)GlcNAc(b1-4)GlcNAc
# How it was run: as §1
# [9] = biological target: Neu5Ac(a2-6)Gal(b1-4)GlcNAc(b1-2)Man(a1-3)[Neu5Ac(a2-6)Gal(b1-4)GlcNAc(b1-2)Man(a1-6)]Man(b1-4)GlcNAc(b1-4)GlcNAc
# How it was run: as §1
# [10] = biological target: Neu5Ac(a2-6)Gal(b1-4)GlcNAc(b1-2)Man(a1-3)[Neu5Ac(a2-6)Gal(b1-4)GlcNAc(b1-2)Man(a1-6)]Man(b1-4)GlcNAc(b1-4)[Fuc(a1-6)]GlcNAc
# How it was run: as §1
# [11] = biological target: Neu5Ac(a2-6)Gal(b1-4)GlcNAc(b1-2)Man(a1-6)Man(b1-4)GlcNAc(b1-4)GlcNAc
# How it was run: as §1
# [12] = biological target: Neu5Ac(a2-6)Gal(b1-4)GlcNAc(b1-2)Man(a1-6)[Gal(b1-4)GlcNAc(b1-2)Man(a1-3)]Man(b1-4)GlcNAc(b1-4)GlcNAc
# How it was run: as §1
# [13] = biological target: Neu5Ac(a2-6)Gal(b1-4)GlcNAc(b1-2)Man(a1-6)[GlcNAc(b1-2)Man(a1-3)]Man(b1-4)GlcNAc(b1-4)GlcNAc
# How it was run: as §1
# [14] = biological target: Neu5Ac(a2-6)Gal(b1-4)GlcNAc(b1-2)Man(a1-6)[Man(a1-3)]Man(b1-4)GlcNAc(b1-4)GlcNAc
# How it was run: as §1
# [15] = biological target: Neu5Ac(a2-6)Gal(b1-4)GlcNAc(b1-2)[Neu5Ac(a2-6)Gal(b1-4)GlcNAc(b1-4)]Man(a1-3)[GlcNAc(b1-4)][Neu5Ac(a2-6)Gal(b1-4)GlcNAc(b1-2)[Neu5Ac(a2-6)Gal(b1-4)GlcNAc(b1-6)]Man(a1-6)]Man(b1-4)GlcNAc(b1-4)GlcNAc
# How it was run: as §1
# [16] = biological target: Neu5Ac(a2-6)Gal(b1-4)GlcNAc(b1-2)[Neu5Ac(a2-6)Gal(b1-4)GlcNAc(b1-4)]Man(a1-3)[GlcNAc(b1-4)][Neu5Ac(a2-6)Gal(b1-4)GlcNAc(b1-4)Man(a1-6)]Man(b1-4)GlcNAc(b1-4)GlcNAc
# How it was run: as §1
# [17] = biological target: Neu5Ac(a2-6)Gal(b1-4)GlcNAc(b1-2)[Neu5Ac(a2-6)Gal(b1-4)GlcNAc(b1-6)]Man(a1-6)[Neu5Ac(a2-6)Gal(b1-4)GlcNAc(b1-2)Man(a1-3)][GlcNAc(b1-4)]Man(b1-4)GlcNAc(b1-4)GlcNAc
# How it was run: as §1
# [18] = biological target: Neu5Ac(a2-6)Gal(b1-4)GlcNAc(b1-3)Gal(b1-3)GlcNAc
# How it was run: as §1
# [19] = biological target: Neu5Ac(a2-6)Gal(b1-4)GlcNAc(b1-3)Gal(b1-4)GlcNAc
# How it was run: as §1
# [20] = biological target: Neu5Ac(a2-6)Gal(b1-4)GlcNAc(b1-3)Gal(b1-4)GlcNAc(b1-2)Man(a1-3)[Neu5Ac(a2-6)Gal(b1-4)GlcNAc(b1-3)Gal(b1-4)GlcNAc(b1-2)Man(a1-6)]GalNAc
# How it was run: as §1
# [21] = biological target: Neu5Ac(a2-6)Gal(b1-4)GlcNAc(b1-3)Gal(b1-4)GlcNAc(b1-3)Gal(b1-4)GlcNAc
# How it was run: as §1
# [22] = biological target: Neu5Ac(a2-6)Gal(b1-4)GlcNAc(b1-3)Gal(b1-4)GlcNAc(b1-3)Gal(b1-4)GlcNAc(b1-2)Man(a1-3)[Neu5Ac(a2-6)Gal(b1-4)GlcNAc(b1-3)Gal(b1-4)GlcNAc(b1-3)Gal(b1-4)GlcNAc(b1-2)Man(a1-6)]GalNAc
# How it was run: as §1
# [23] = biological target: Neu5Ac(a2-6)Gal(b1-4)GlcNAc(b1-3)Gal(b1-4)GlcNAc(b1-3)GalNAc
# How it was run: as §1
# [24] = biological target: Neu5Ac(a2-6)Gal(b1-4)GlcNAc(b1-3)Gal(b1-4)GlcNAc(b1-3)[Neu5Ac(a2-6)Gal(b1-4)GlcNAc(b1-3)Gal(b1-4)GlcNAc(b1-6)]GalNAc
# How it was run: as §1
# [25] = biological target: Neu5Ac(a2-6)Gal(b1-4)GlcNAc(b1-3)Gal(b1-4)GlcNAc(b1-6)[Gal(b1-3)]GalNAc
# How it was run: as §1
# [26] = biological target: Neu5Ac(a2-6)Gal(b1-4)GlcNAc(b1-3)Gal(b1-4)[Fuc(a1-3)]GlcNAc(b1-3)Gal(b1-4)[Fuc(a1-3)]GlcNAc
# How it was run: as §1
# [27] = biological target: Neu5Ac(a2-6)Gal(b1-4)GlcNAc(b1-3)GalNAc
# How it was run: as §1
# [28] = biological target: Neu5Ac(a2-6)Gal(b1-4)GlcNAc(b1-3)[Neu5Ac(a2-6)Gal(b1-4)GlcNAc(b1-6)]GalNAc
# How it was run: as §1
# [29] = biological target: Neu5Ac(a2-6)Gal(b1-4)GlcNAc(b1-6)GalNAc
# How it was run: as §1
# [30] = biological target: Neu5Ac(a2-6)Gal(b1-4)GlcNAc(b1-6)[Gal(b1-3)GlcNAc(b1-3)]Gal(b1-4)Glc
# How it was run: as §1
# [31] = biological target: Neu5Ac(a2-6)Gal(b1-4)GlcNAc(b1-6)[Gal(b1-3)]GalNAc
# How it was run: as §1
# [32] = biological target: Neu5Ac(a2-6)Gal(b1-4)GlcNAc6S
# How it was run: as §1
# Neu5Ac(a2-6)GalNAc = biological target: Neu5Ac(a2-6)GalNAc
# How it was run: as §1
# [33] = biological target: Neu5Ac(a2-6)GalNAc(b1-4)GlcNAc
# How it was run: as §1
# [34] = biological target: Neu5Ac(a2-6)GalNAc(b1-4)GlcNAc6S
# How it was run: as §1
# [35] = biological target: Neu5Ac(a2-6)GlcNAc(b1-4)GlcNAc
# How it was run: as §1
# [36] = biological target: Neu5Ac(a2-6)GlcNAc(b1-4)GlcNAc(b1-4)GlcNAc
# How it was run: as §1
binder,measurement,setting,value
diCBM40 CPF071 (Clostridium perfringens) (protein) MAHHHHHHVGTGSNDDDDKSPDPMLSSLGEYKDINLESSNASNITYDLEKYKNLDEGTIVVRFNSKDSKIQSLLGISNSKTKNGYFNFYVTNSRVGFELRNQKNEGNTQNGTENLVHMYKDVALNDGDNTVALKIEKNKGYKLFLNGKMIKEVKDTNTKFLNNIENLDSAFIGKTNRYGQSNEYNFKGNIGFMNIYNEPLGDDYLLSKTGETKALNGSELGSGSGLSSLGEYKDINLESSNASNITYDLEKYKNLDEGTIVVRFNSKDSKIQSLLGISNSKTKNGYFNFYVTNSRVGFELRNQKNEGNTQNGTENLVHMYKDVALNDGDNTVALKIEKNKGYKLFLNGKMIKEVKDTNTKFLNNIENLDSAFIGKTNRYGQSNEYNFKGNIGFMNIYNEPLGDDYLLSKTGETK,glycan array binding signal (z-score),[1],-0.319
same,glycan array binding signal (z-score),Neu5Ac(a2-6)Gal(b1-4)Glc,0.183
same,glycan array binding signal (z-score),[2],-0.146
same,glycan array binding signal (z-score),[3],-0.324
same,glycan array binding signal (z-score),[4],0.015
same,glycan array binding signal (z-score),[5],0.229
same,glycan array binding signal (z-score),[6],-0.31
same,glycan array binding signal (z-score),[7],-0.195
same,glycan array binding signal (z-score),[8],-0.278
same,glycan array binding signal (z-score),[9],0.49
same,glycan array binding signal (z-score),[10],0.213
same,glycan array binding signal (z-score),[11],0.02
same,glycan array binding signal (z-score),[12],-0.056
same,glycan array binding signal (z-score),[13],-0.225
same,glycan array binding signal (z-score),[14],-0.285
same,glycan array binding signal (z-score),[15],-0.127
same,glycan array binding signal (z-score),[16],-0.184
same,glycan array binding signal (z-score),[17],-0.3
same,glycan array binding signal (z-score),[18],-0.241
same,glycan array binding signal (z-score),[19],-0.102
same,glycan array binding signal (z-score),[20],-0.255
same,glycan array binding signal (z-score),[21],0.065
same,glycan array binding signal (z-score),[22],-0.118
same,glycan array binding signal (z-score),[23],-0.078
same,glycan array binding signal (z-score),[24],-0.291
same,glycan array binding signal (z-score),[25],-0.188
same,glycan array binding signal (z-score),[26],-0.154
same,glycan array binding signal (z-score),[27],-0.227
same,glycan array binding signal (z-score),[28],-0.197
same,glycan array binding signal (z-score),[29],-0.312
same,glycan array binding signal (z-score),[30],-0.316
same,glycan array binding signal (z-score),[31],-0.241
same,glycan array binding signal (z-score),[32],0.551
same,glycan array binding signal (z-score),Neu5Ac(a2-6)GalNAc,-0.26
same,glycan array binding signal (z-score),[33],-0.326
same,glycan array binding signal (z-score),[34],-0.255
same,glycan array binding signal (z-score),[35],-0.209
same,glycan array binding signal (z-score),[36],-0.17
